Results published in US20250382361A1 (UNIVERSITY OF OREGON, published 2025).
Where a chain is given by its changes, count along the chain named. Numbers in names are those of the source.

What was measured:
[1] = biological target: T1, Granulocyte-macrophage colony-stimulating factor (GM-CSF), biotinylated (UniProt P04141 18-144, biotinylated (bGM-CSF)); assay: yeast surface display, flow cytometry with biotinylated GM-CSF
T1 construct: also called bGM-CSF

[2] = biological target: T2, Recombinant VEGF165 (vascular endothelial growth factor) (UniProt P15692-4 27-191, biotinylated (bVEGF) in flow cytometry and BLI); assay: BLI, 25 nM bVEGF on streptavidin probes, soluble affibody 31.25-1000 nM, global fit
T2 construct: also called VEGF-A (165); bVEGF
T2 sequence (looked up): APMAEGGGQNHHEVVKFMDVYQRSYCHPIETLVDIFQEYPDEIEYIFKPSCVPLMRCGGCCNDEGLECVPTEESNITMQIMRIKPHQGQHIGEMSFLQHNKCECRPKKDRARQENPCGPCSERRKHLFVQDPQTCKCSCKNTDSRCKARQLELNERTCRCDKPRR

[3] = biological target: T3, Recombinant human PDGF-BB (platelet-derived growth factor) (human, UniProt P01127 82-190, biotinylated (bPDGF) in flow cytometry and off-target BLI; not biotinylated in the Ni-NTA BLI); assay: biolayer interferometry; 25 nM bPDGF on streptavidin probes, 1000 nM soluble affibody as analyte
T3 construct: also called rhPDGF-BB; bPDGF

[4] = biological target: T2, Recombinant VEGF165 (vascular …); assay: BLI
[5] = biological target: T2, Recombinant VEGF165 (vascular …); assay: method not stated in Table 1 (yeast surface display or BLI per paragraph 316)
[6] = biological target: T3, Recombinant human PDGF-BB …; assay: biolayer interferometry, 25 nM bPDGF on streptavidin probes, 1000 nM soluble affibody
[7] = biological target: T4, Recombinant FGF-2 (fibroblast growth factor 2) (UniProt P09038 143-288, limits assumed, biotinylated (bFGF-2) in flow cytometry and BLI); assay: biolayer interferometry, 25 nM bFGF-2 on streptavidin probes, 1000 nM soluble affibody
T4 construct: also called bFGF-2; biotinylated FGF-2

[8] = biological target: T5, Recombinant human BMP-2 (bone morphogenetic protein 2) (human, UniProt P12643 283-396, biotinylated with Sulfo-NHS-Biotin (bBMP-2) in flow cytometry and BLI); assay: flow cytometry, yeast-displayed affibody titrated with bBMP-2 0.5-1000 nM
T5 construct: Bought protein; also called bBMP-2; bBMP
T5 sequence (looked up): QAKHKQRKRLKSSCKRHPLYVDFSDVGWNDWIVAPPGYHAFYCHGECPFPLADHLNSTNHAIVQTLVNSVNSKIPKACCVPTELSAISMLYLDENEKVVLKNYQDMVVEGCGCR
Excerpt: Yeast clones with names starting with the letter A were identified using the gating approach in FIG. 2A, and yeast clones with names starting with B were identified using the gate approach in FIG. 2B. The affibodies chosen for further characterization are boxed in the legend.

[9] = biological target: T2, Recombinant VEGF165 (vascular …); assay: biolayer interferometry, 25 nM bVEGF on streptavidin probes, 1000 nM soluble affibody
[10] = biological target: T3, Recombinant human PDGF-BB …; assay: biolayer interferometry, 25 nM bPDGF on streptavidin probes, 1000 nM soluble affibody; remark: listed apart in the source
[11] = biological target: T3, Recombinant human PDGF-BB …; assay: BLI, 200 nM His-tagged affibody on Ni-NTA probes, PDGF 1.563-50 nM, global fit
[12] = biological target: T4, Recombinant FGF-2 (fibroblast growth …); assay: yeast surface display, flow cytometry with bFGF-2
[13] = biological target: T2, Recombinant VEGF165 (vascular …); assay: flow cytometry, yeast-displayed affibody with biotinylated target
[14] = biological target: T2, Recombinant VEGF165 (vascular …); assay: BLI, 25 nM bVEGF on streptavidin probes
[15] = biological target: T3, Recombinant human PDGF-BB …; assay: BLI, affibody on Ni-NTA probes, soluble PDGF (method not stated in Table 1)
[16] = biological target: T2, Recombinant VEGF165 (vascular …); assay: flow cytometry, yeast-displayed affibody with 1000 nM biotinylated target
[17] = biological target: T1, Granulocyte-macrophage …; assay: as above
[18] = biological target: T6, Interleukin-4 (IL-4), biotinylated (UniProt P05112 25-153, biotinylated (bIL-4)); assay: method not stated; Example 16 describes yeast surface display flow cytometry
T6 construct: also called bIL-4
T6 sequence (looked up): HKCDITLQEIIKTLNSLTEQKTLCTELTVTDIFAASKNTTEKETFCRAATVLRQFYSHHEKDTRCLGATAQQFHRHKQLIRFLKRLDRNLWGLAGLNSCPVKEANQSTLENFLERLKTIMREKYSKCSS

T4 sequence (P09038 143-288 limits assumed): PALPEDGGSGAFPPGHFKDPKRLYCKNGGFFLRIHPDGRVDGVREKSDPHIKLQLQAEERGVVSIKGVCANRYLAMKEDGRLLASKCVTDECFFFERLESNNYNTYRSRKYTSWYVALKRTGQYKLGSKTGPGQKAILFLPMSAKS
T1 sequence (P04141 18-144 limits assumed): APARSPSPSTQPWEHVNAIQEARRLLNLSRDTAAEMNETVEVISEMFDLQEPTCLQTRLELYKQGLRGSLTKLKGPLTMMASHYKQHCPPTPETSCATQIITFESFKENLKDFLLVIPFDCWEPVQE
T3 sequence (P01127 82-190): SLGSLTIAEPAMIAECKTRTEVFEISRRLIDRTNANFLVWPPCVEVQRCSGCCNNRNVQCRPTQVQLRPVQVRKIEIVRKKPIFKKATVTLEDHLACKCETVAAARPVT

B1: GM-CSF affibody GM4-C3 (Low Affinity) (SEQ ID NO: 14), yeast-displayed (designed binder)
chain: AEAKYAKEGLNAYLSIRWLPNLTGDQMYAFISALLDDPSQSSELLSEAKKLNDSQAPK
- Kd [1]: 3780 nM

B2: GM-CSF affibody GM3-C4 (High Affinity) (SEQ ID NO: 12), yeast-displayed (designed binder)
chain: AEAKYTKELFNAVGEITALPNLTRYHLYAFYYALLNDPSQSSELLSEAKKLNDSQAPK
- Kd [1]: 441 nM

B3: VEGF Affibody (SEQ ID NO: 22), soluble with hexahistidine tag and C-terminal cysteine (designed binder)
chain: AEAKYNKEWYDAVFVIGSLPNLTEDQKDAFSDALVDDPSQSSELLSEAKKLNDSQAPKHHHHHHC
notes: Soluble, expressed in E. coli; also called BR2; original VEGF affibody
- Kd [2]: 89.8 nM
- koff [2]: 0.00386 s⁻¹
- kon [2]: 43000 M⁻¹ s⁻¹
- binding result [3]: no binding (tested: 1000 nM)

B4: VEGF Affibody-D32A (SEQ ID NO: 78), soluble with hexahistidine tag and C-terminal cysteine (designed binder)
chain: B3 chain with D32A
notes: soluble, expressed in E. coli
- fold reduction in affinity compared to the original VEGF affibody [4]: 10000 fold
- Kd [5]: 4190 nM
- Kd [2]: 984000 nM
- koff [2]: 0.00769 s⁻¹
- binding result [6]: no binding (tested: 1000 nM)
- binding result [7]: no binding (tested: 1000 nM)

B5: VEGF Affibody-D36A (SEQ ID NO: 79), soluble with hexahistidine tag and C-terminal cysteine (designed binder)
chain: B3 chain with D36A
notes: soluble, expressed in E. coli
- fold reduction in affinity compared to the original VEGF affibody [4]: 20 fold
- Kd [5]: 109 nM
- Kd [2]: 2050 nM
- koff [2]: 0.00837 s⁻¹
- kon [2]: 4080 M⁻¹ s⁻¹
- binding result [3]: no binding (tested: 1000 nM)

B6: BMP-2 affibody B3-3 (SEQ ID NO: 10), yeast-displayed (designed binder)
chain: AEAKYYKEWVNAYDQIRVLPNLTRFQRLAFYRALYNDPSQSSELLSEAKKLNDSQAPK
- EC50 (read off the curve) [8]: ~20 nM

B7: FGF-2 High Affibody FG2-C1 (SEQ ID NO: 42), soluble with hexahistidine tag and C-terminal cysteine (designed binder)
chain: AEAKYTKEGSDAFDVIVLLPNLTRDQRDAFLYALLDDPSQSSELLSEAKKLNDSQAPKHHHHHHC
notes: Soluble, expressed in E. coli
- binding result [9]: no binding (tested: 1000 nM)
- binding result [10]: binds

B8: BMP-2 affibody A1-1 (SEQ ID NO: 4), yeast-displayed (designed binder)
chain: AEAKYNKEVTAAANSIWVLPNLTGDQKAAFFEALLDDPSQSSELLSEAKKLNDSQAPK
- binding result [8]: binds

B9: BMP-2 affibody A2-3 (SEQ ID NO: 7), yeast-displayed (designed binder)
chain: AEAKYYKERRAAAVVIFYLPNLTRVQKGAFIEALDDDPSQSSELLSEAKKLNDSQAPK
- binding result [8]: binds

B10: PDGF Affibody (SEQ ID NO: 60), soluble with hexahistidine tag and C-terminal cysteine (designed binder)
chain: AEAKYAKELDDASVEIWDLPNLTPCQKVAFFVALYDDPSQSSELLSEAKKLNDSQAPKHHHHHHC
notes: Soluble, expressed in E. coli; also called BM_6; original PDGF affibody
- Kd [11]: 3.28 nM
- koff [11]: 0.000592 s⁻¹
- kon [11]: 180000 M⁻¹ s⁻¹

B11: FGF-2 affibody FG3-C4 (Low) (SEQ ID NO: 44), yeast-displayed (designed binder)
chain: AEAKYNKEVFDADCSIWYLPNLTRYQISAFQSALDDDPSQSSELLSEAKKLNDSQAPK
notes: also called FGF-2 Low Affibody
- Kd [12]: 4550 nM
- binding result [13]: no binding

B12: VEGF affibody TM2 (High Affinity) (SEQ ID NO: 20), soluble with hexahistidine tag and C-terminal cysteine (designed binder)
chain: AEAKYYKEGATAYRVIEYLPNLTGAQKAAFIDALYNDPSQSSELLSEAKKLNDSQAPKHHHHHHC
notes: Soluble, expressed in E. coli; also called VEGF High Affibody
- binding result [6]: no binding (tested: 1000 nM)
- binding result [7]: no binding (tested: 1000 nM)

B13: PDGF Affibody-11 (SEQ ID NO: 58), soluble with hexahistidine tag and C-terminal cysteine (designed binder)
chain: AEAKYAHELWEADWEITNLPNLSPDQLMAFYMALWDDPSQSSELLSEAKKLNDSQAPKHHHHHHC
notes: soluble, expressed in E. coli; also called 0010; 0010/Affibody-11
- binding result [14]: no binding (tested: 1000 nM)
- Kd [15]: 6.44 nM
- Kd [11]: 6.44 nM
- koff [11]: 0.00311 s⁻¹
- kon [11]: 476000 M⁻¹ s⁻¹

B14: FGF-2 Low Affibody FG3-C4 (SEQ ID NO: 44), soluble with hexahistidine tag and C-terminal cysteine (designed binder)
chain: AEAKYNKEVFDADCSIWYLPNLTRYQISAFQSALDDDPSQSSELLSEAKKLNDSQAPKHHHHHHC
notes: Soluble, expressed in E. coli
- binding result [9]: no binding (tested: 1000 nM)
- binding result [10]: binds

B15: Low Affinity BMP-2 affibody B4-1 (SEQ ID NO: 3), yeast-displayed (designed binder)
chain: AEAKYYKEGDNAYNVIYGLPNLTRPQRLAFIVALFNDPSQSSELLSEAKKLNDSQAPK
- binding result [16]: no binding (tested: 1000 nM)
- binding result [17]: no binding (tested: 1000 nM)

B16: GM-CSF affibody GM4-C4 (Mid affinity) (SEQ ID NO: 13), yeast-displayed (designed binder)
chain: AEAKYNKEWFAADLSIGFLPNLTLDQLYAFVFALYDDPSQSSELLSEAKKLNDSQAPK
- Kd [1]: 971 nM

B17: PDGF Affibody-16 (SEQ ID NO: 80), soluble with hexahistidine tag and C-terminal cysteine (designed binder)
chain: AEEKYMMEAHWALMEILNLPNLHPCQQDAFWLALWDDPSQSSELLSEAKKLNDSQAPKHHHHHHC
notes: soluble, expressed in E. coli; also called 0032; 0032/Affibody-16 (High)
- binding result [14]: no binding (tested: 1000 nM)
- Kd [15]: 5.86 nM
- Kd [11]: 5.87 nM
- koff [11]: 0.00264 s⁻¹
- kon [11]: 450000 M⁻¹ s⁻¹

B18: GM-CSF affibody GM4-C2 (SEQ ID NO: 19), yeast-displayed (designed binder)
chain: AEAKYYKEGFYANFVIGALPNLTLVQRAAFYFALLNDPSQSSELLSEAKKLNDSQAPK
- Kd [1]: 787 nM

B19: IL-4 affibody G3H-C7 (SEQ ID NO: 62) (designed binder)
chain: AEAKYTKELSDANAEIWSLPNLTVDQLVAFIFALWDDPSQSSELLSEAKKLNDSQAPK
- Kd [18]: 92 µM

B20: GM-CSF affibody GM3-C1 (SEQ ID NO: 17), yeast-displayed (designed binder)
chain: AEAKYNKEVGTANFEIVLLPNLTLYQMLAFIKALVNDPSQSSELLSEAKKLNDSQAPK
- Kd [1]: 297 nM

B21: BMP-2 affibody A3-1 (SEQ ID NO: 8), yeast-displayed (designed binder)
chain: AEAKYAKERLNAIYVINDLPNLTQGQRVAFARALYNDPSQSSELLSEAKKLNDSQAPK
- binding result [8]: binds

B22: FGF-2 affibody FG2-C1 (High) (SEQ ID NO: 42), yeast-displayed (designed binder)
chain: AEAKYTKEGSDAFDVIVLLPNLTRDQRDAFLYALLDDPSQSSELLSEAKKLNDSQAPK
notes: also called FGF-2 High Affibody
- Kd [12]: 3.08 nM
- binding result [13]: no binding

B23: IL-4 affibody G3H-C3 (SEQ ID NO: 61) (designed binder)
chain: AEAKYNKELDAADADVEIWLLPNLTLDQLLAFIAALFNDPSQSSELLSEAKKLNDSQAPK
- Kd [18]: 0.004 µM
